According to PubChem BioAssay AID1347073 (National Center for Advancing Translational Sciences (NCATS), 2019):
Hit rate of the full screen: of about 45,000 compounds, about 200 (0.44%) were called active. Another 7% or so got no clear call; they are omitted. Calls come from the whole dose curve; as a rule, active = well fitted activation curve with a large enough effect; inconclusive = small, poorly fitted or top-dose-only effect; inactive = no such curve, though single readings can be large or run the other way. The list shows a part of the results.

Assay: qHTS of TDP-43 Inhibitors: NCGC Sytravon Library Screen; note: 0% is about no effect; nearly all actives have a fitted effect of over 55% in size
Conditions: yeast TDP-43 toxicity rescue, BacTiter-Glo growth, 24 h; series mostly up to 46.1 µM; growth rescue (activation): at the top concentration
In short: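 TDP-43-expressing yeast, pregrown in raffinose, seeded at OD600 0.02 in galactose medium with compound for 24 hr at 30 deg C. Growth read by BacTiter-Glo luminescence, so rescue of toxicity appears as activation.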

Compound | growth rescue (activation)
CCCc1ccc(-c2cc(C(=O)NC3=NCCS3)c3ccccc3n2)cc1 | inactive: 5.88%
COc1cc2c(cc1OC)CN(C1CCC(C(C)(C)C)CC1)CC2 (stereo not given) | inactive: -11.2%
Cc1ccc(-n2c(SCC(=O)O)nc3sc4c(c3c2=O)CCCC4)cc1 | inactive: 5.95%
O=C(CN1C(=O)NC2(CCCC2)C1=O)Nc1ccc(Cl)cc1F | inactive: 5.9%
NC(CCC(=O)O)C12CC3CC(CC(C3)C1)C2 (stereo not given) | inactive: 0.76%
Nc1nnc(SCc2cn3cc(Cl)ccc3n2)s1 | inactive: 10.4%
CC(C)Cn1cc(-c2cncc3nccn23)cn1 | inactive: 6.26%
O=C(CCc1nnc(C2(c3ccc(Cl)cc3)CCC2)o1)NC1CC1 | inactive: 10.2%
CCC1CCCCN1CCCNC(=O)c1ccc2c(c1)N(Cc1ccccc1)C(=O)c1ccccc1S2(=O)=O (stereo not given) | inactive: 10.8%
Cc1ccc(CN(CC(=O)NC(C)(C)C)C(=O)CNC(=O)c2cccs2)cc1 | inactive: 2.26%
CCC(CC)NC(=O)/C=C/c1ccccc1Cl | inactive: -31.9%
CCc1ccc(NC(=O)c2cnn3c(C(F)F)cc(C)nc23)cc1 | inactive: 17.1%
CNCCCOc1ccc(Cl)cc1C(C)(C)C | inactive: 1.67%
Cc1nc2ccccc2c(=O)n1NC(=O)/C=C/c1ccccc1 | inactive: 2.49%
N#Cc1cnc(SCC(=O)NNC(=O)COc2cccc3ccccc23)nc1N | inactive: 4.74%
COc1cc(/C=C2/SC(=S)N(C)C2=O)ccc1OC(=O)c1ccco1 | inactive: 7.83%
CC(C)OC(=O)c1cn(-c2ccccc2)nc1-c1ccco1 | inactive: 29.4%
O=C(COc1ccccc1)NC(=S)Nc1ccc2c(c1)Cc1ccccc1-2 | inactive: 5.78%
CN(C)N=Nc1ccc(S(N)(=O)=O)cc1 | inactive: 4.48%
O=C(Nn1c(-c2ccc(F)cc2)nc2ccccc2c1=O)c1cccnc1 | inactive: -14.5%
CN(C)C(=O)CN1CCN(c2nc3nonc3nc2N2CCCCC2)CC1 | inactive: -11%
O=C(Cn1nc(-c2cccc([N+](=O)[O-])c2)c2ccccc2c1=O)NCC1CCCO1 (stereo not given) | inactive: -1.16%

Compound | growth rescue (activation)
CCc1cccc(NC(=O)C(NC(=O)C2CCCCC2)C(C)C)c1 (stereo not given) | inactive: -14.9%
O=C(COc1nc2ccccc2nc1N1CCOCC1)NCC(F)(F)F | inactive: -5.92%
COc1ccc(N(C)S(=O)(=O)c2cccc(C(=O)Nc3ccc4c(c3)OCCO4)c2)cc1 | inactive: 11.7%
Cc1cc(C)cc(N2CC(C(=O)Nc3cc(C)on3)CC2=O)c1 (stereo not given) | inactive: 15.2%
Cc1cccc(NC(=O)C2CCN(S(=O)(=O)c3c(C)noc3/C=C/c3ccco3)CC2)n1 | inactive: -6.55%
CN1CCc2nc(NC(=O)COc3ccc4ccccc4c3)sc2C1 | inactive: 1.38%
CCN(CC)S(=O)(=O)c1ccc(N/N=C/c2cc(OC)ccc2O)nc1 | inactive: -6.6%
Cc1[nH]c2ccccc2c1C(C[N+](=O)[O-])c1ccco1 (stereo not given) | inactive: 15.4%
c1cc(CNC2C3CC4CC(C3)CC2C4)ccn1 (stereo not given) | inactive: -11.8%
COc1cccc(-c2noc(-c3cccnc3)n2)c1 | inactive: 34.8%
Cc1cc(C)nc(-n2nc(C)cc2NC(=O)c2ccc(F)cc2F)n1 | inactive: 13.7%
COc1ccc(NC(=O)CSc2nnc(CNc3ccc(C)cc3)n2C)cc1 | inactive: -3.79%
Cc1ccc(N(CC(=O)NCc2ccco2)C(=O)CCC(=O)Nc2nccs2)c(C)c1 | inactive: 11.6%
CCOC(=O)c1cnc2c(cnn2C)c1NCc1ccc(OC)cc1 | inactive: 11%
Cc1nn(CCO)c2ncc(C(=O)c3cc(Cl)ccc3O)cc12 | inactive: 12%
Cc1ccc(NC(=O)Cc2c(Cl)cccc2Cl)cc1S(=O)(=O)N(C)C | inactive: 8.83%
CC(=O)COc1ncnc2c(Cl)cc(Cl)cc12 | inactive: 9.8%
CCNC(=O)C1(C)CCCN(C(=O)c2sccc2C)C1 (stereo not given) | inactive: 8.59%
CCc1ccc(C2C(C#N)=C(N)OC3=C2C(=O)CCC3)s1 (stereo not given) | inactive: 5.21%
O=C(c1nc2ccc(Cl)cn2c1CNCCc1cnccn1)N1CCCCCCC1 | inactive: 9.69%
Cn1cccc1CNC(=S)Nc1ccccc1F | inactive: -68.5%
CCCCNC(=O)COC(=O)c1c2c(nc3ccccc13)/C(=C\c1cccs1)CC2 | inactive: 25.5%

Compound | growth rescue (activation)
CCCSc1ncc(Cl)c(C(=O)Nc2ccc(S(=O)(=O)N3CCCCC3C)cc2)n1 (stereo not given) | inactive: 16.1%
CC(=O)Nc1ccc(S(=O)(=O)NCc2nc(-c3ccccc3C)no2)cc1 | inactive: -7.53%
COc1ccc(/C=N/NC(=O)CCn2nc(C)cc2C)cc1 | inactive: 5.94%
NS(=O)(=O)c1ccc(CCNC(=O)Cc2ccc(S(=O)(=O)N3CCCC3)s2)cc1 | inactive: 10.2%
CC1(C)CC(=O)C(CC(=O)N2CCC(Cc3ccccc3)CC2)C(=O)C1 | inactive: 0.17%
O=C(O)c1ccc(CN2C[C@@H](CO)O[C@@H](n3cnc4c(NCc5ccco5)ncnc43)C2)cc1 | inactive: -3.2%
COCCNC(=O)CCCC(=O)NCCOC | inactive: 7.01%
COc1ccc(NC(=O)COc2ccccc2Cc2ccccc2)cc1S(=O)(=O)N1CCOCC1 | inactive: 23.6%
COc1ccc(NS(=O)(=O)c2ccc(N3CCCC3)c(N)c2)cc1 | inactive: 4.94%
COc1ccc(CCNC(=O)COC(=O)c2ccccn2)cc1 | inactive: -1.56%
O=C1CC(c2ccccc2)CC(O)=C1C=NCCCO (stereo not given) | inactive: -5.28%
O=C(NC1CC1)c1sc2ccccc2c1Cl | inactive: 11.9%
O=C(CSc1nc2ncc(Cl)cc2[nH]1)N1CCC(Cc2ccccc2)CC1 | inactive: -2.69%
O=C(O)c1ccccc1N/N=C/c1cc(Br)cc(Br)c1O | inactive: -15.3%
O=C(NC(=S)Nc1ccc(N2CCCC2)cc1)c1ccccc1[N+](=O)[O-] | inactive: -12.6%
COCCOC(=O)C1=C(C)NC(=O)NC1c1ccco1 (stereo not given) | inactive: 10%
COc1ccc(CCC(C)N2CCC(CO)(Cc3ccccc3)CC2)cc1 (stereo not given) | inactive: -0.202%
CN(CCOc1ccccc1)CC(=O)Nc1ccc(Br)cc1F | inactive: 1.09%
CCOc1ccc(NC(=O)COc2ccc(S(=O)(=O)N3CCCC3)cc2)cc1 | inactive: 0.921%
COc1ccc(C2C(=O)c3ccccc3C2=O)cc1OC | inactive: 1.97%
O=C(COc1cccc2cccnc12)N/N=C/c1cccn1-c1ccc(F)cc1 | inactive: 4.42%
CC#CC[N+](C)(C)CCCCCCCC | inactive: 6.42%

Compound | growth rescue (activation)
Cc1nnc(SCCn2c(Br)nc3c2c(=O)[nH]c(=O)n3C)s1 | inactive: -12.4%
O=C(CN1CCC(C(=O)c2ccc3c(c2)OCCO3)CC1)Nc1ccccc1C(F)(F)F | inactive: 1.22%
O=C(/C=C/c1ccc(Br)o1)Nc1nccs1 | inactive: 9.06%
Cc1ccc(/C([O-])=C(/C(=S)NCc2ccccc2)[n+]2ccccc2)cc1[N+](=O)[O-] | inactive: -7.04%
Cc1ccc(S(=O)(=O)N2CCN(C(=O)Cn3c(=O)oc4ccccc43)CC2)cc1 | inactive: 23.7%
O=[N+]([O-])c1cc(Cl)c(O)c2ncccc12 | inactive: -91%
O=C(N[C@@H](Cc1c[nH]c2ccccc12)C(=O)O)c1ccccc1Cl | inactive: 1.34%
C=COCCNC(=O)C(=O)NC(C)C | inactive: 14.1%
CC1CCC2(CC1)NC(=O)N(CC(=O)Nc1ccc3c(c1)OCCO3)C2=O (stereo not given) | inactive: 10.2%
COc1ccccc1CN1CC(C(=O)NCc2nc3ccccc3n2C)CCC1=O (stereo not given) | inactive: 13.5%
Cc1ccc2nc(-c3ccc4c(c3)NC(=O)CO4)cn2c1 | inactive: 7.69%
Cc1ccc(NC(=O)Cn2ccsc2=N)cc1S(=O)(=O)N(C)C | inactive: -2.04%
CCN(CC)S(=O)(=O)c1ccc(-c2cn3cc(Cl)ccc3n2)cc1 | inactive: 1.88%
O=C(CN(Cc1ccccc1)S(=O)(=O)c1ccc(Cl)cc1)NCC1CCCO1 (stereo not given) | inactive: 22.8%
COc1cc2c(cc1OC)CN(C(=O)c1ccco1)CC2 | inactive: -13.1%
Cc1ccc(C(C(=O)NC2CCCCC2)N(C(=O)c2csnn2)C2CC2)cc1 (stereo not given) | inactive: 5.09%
CC(C)N1CCC1(C)C(=O)Nc1ccccc1OC(F)F (stereo not given) | inactive: 9.19%
CC1CC2(C)Oc3ccccc3CC2C(C)C1CNCCCN(C)C (stereo not given) | inactive: -4.76%
CC12CCC(C(=O)N(c3ccc(Cl)cc3)C1=O)C2(C)C (stereo not given) | inactive: 21.2%
Cc1coc2c1c(C)cc1oc(=O)c(CC(=O)NCCCCCC(=O)O)c(C)c12 | inactive: 0.309%
O=C(CCc1ccccc1)Nc1cc2c(cc1C(=O)O)OCCCO2 | inactive: 9.27%
CCN(CC)S(=O)(=O)c1ccc(NC(=O)c2cc(=O)[nH]c3ccccc23)cc1 | inactive: 9.58%

Compound | growth rescue (activation)
O=C(Nc1noc2ccccc12)c1ccc(F)cc1 | inactive: 14.8%
CCn1cc(CN2CCC(C(=O)Nc3cccc(-c4cscn4)c3)CC2)cn1 | inactive: 1.4%
COc1ccc(S(=O)(=O)Nc2ccccc2C)cc1C(=O)N1CCOCC1 | inactive: -10.6%
NC(=O)C1CCCN(C(=S)NCc2ccc3c(c2)OCO3)C1 (stereo not given) | inactive: 8.93%
CC(=O)c1cccc(N(CC(=O)Nc2ccccc2F)S(C)(=O)=O)c1 | inactive: -22%
Cc1cccc(N=Nc2cnc(N)s2)c1 | inactive: -0.581%
CC(=O)OC1OCCOC1NC(=S)Nc1cccc(C(F)(F)F)c1 (stereo not given) | inactive: 14.2%
Cc1nn2c(NCCN3CCOCC3)c3c(nc2c1-c1ccccc1)CCCC3 | inactive: 0.552%
C/C(=N\NC(=O)CSCc1ccc([N+](=O)[O-])cc1)c1cccc(Br)c1 | inactive: 19.5%
O=C(Nc1cccc(Cl)c1Cl)c1cc(S(=O)(=O)NCCc2ccccc2)ccc1F | inactive: 16.4%
CCOC(=O)C1=C(C)NC(C)=C(C(=O)OCC)C1C(=O)OCC(=O)N1c2ccccc2CC1C (stereo not given) | inactive: 5.65%
COc1sc(SC)cc1/C=N/NC(=O)c1ccncc1 | inactive: -25.9%
NC1=NS(=O)(=O)NC1c1ccc(Br)cc1 (stereo not given) | inactive: 7.92%
CSC(=NCc1ccc(F)cc1)NS(=O)(=O)c1cccs1 | inactive: 20.6%
O=C(N1CCOCC1)N1CCN(S(=O)(=O)c2ccc(Cl)cc2)C1 | inactive: 10.2%
Nc1nc(SCc2nc3sc4c(c3c(=O)[nH]2)CCCC4)n[nH]1 | inactive: 14.3%
O=C1C2C3C=CC(C4CC34)C2C(=O)N1/N=C/c1c[nH]c2ccccc12 (stereo not given) | inactive: 1.57%
CCc1ccccc1N(C)S(=O)(=O)c1ccc2[nH]cc(C(=O)N3CCc4ccccc43)c(=O)c2c1 | inactive: 0.759%
CCOc1ccc(C(=O)N[C@H](C(=O)Nc2ccc(S(=O)(=O)Nc3nccs3)cc2)C(C)C)cc1 | inactive: 7.58%
COc1ccc(NC(=O)CN(c2ccccc2)S(=O)(=O)N(C)C)cc1Cl | inactive: -9.16%
Cc1nn(CC(=O)Nc2ccc(N3CCOCC3)cc2)c(C)c1Br | inactive: -6.72%
COCCCNC(=O)c1ccc2nc([C@@H]3O[C@H](CO)[C@H](O)[C@H](O)[C@H]3O)[nH]c2c1 | inactive: 3.57%
